Changes are numbered by the printed parent chain.
Target: T1, human ENPP1 on the cell surface (293T-ENPP1 cells, HepG2 cells) (human, UniProt P22413 1-925)
T1 sequence: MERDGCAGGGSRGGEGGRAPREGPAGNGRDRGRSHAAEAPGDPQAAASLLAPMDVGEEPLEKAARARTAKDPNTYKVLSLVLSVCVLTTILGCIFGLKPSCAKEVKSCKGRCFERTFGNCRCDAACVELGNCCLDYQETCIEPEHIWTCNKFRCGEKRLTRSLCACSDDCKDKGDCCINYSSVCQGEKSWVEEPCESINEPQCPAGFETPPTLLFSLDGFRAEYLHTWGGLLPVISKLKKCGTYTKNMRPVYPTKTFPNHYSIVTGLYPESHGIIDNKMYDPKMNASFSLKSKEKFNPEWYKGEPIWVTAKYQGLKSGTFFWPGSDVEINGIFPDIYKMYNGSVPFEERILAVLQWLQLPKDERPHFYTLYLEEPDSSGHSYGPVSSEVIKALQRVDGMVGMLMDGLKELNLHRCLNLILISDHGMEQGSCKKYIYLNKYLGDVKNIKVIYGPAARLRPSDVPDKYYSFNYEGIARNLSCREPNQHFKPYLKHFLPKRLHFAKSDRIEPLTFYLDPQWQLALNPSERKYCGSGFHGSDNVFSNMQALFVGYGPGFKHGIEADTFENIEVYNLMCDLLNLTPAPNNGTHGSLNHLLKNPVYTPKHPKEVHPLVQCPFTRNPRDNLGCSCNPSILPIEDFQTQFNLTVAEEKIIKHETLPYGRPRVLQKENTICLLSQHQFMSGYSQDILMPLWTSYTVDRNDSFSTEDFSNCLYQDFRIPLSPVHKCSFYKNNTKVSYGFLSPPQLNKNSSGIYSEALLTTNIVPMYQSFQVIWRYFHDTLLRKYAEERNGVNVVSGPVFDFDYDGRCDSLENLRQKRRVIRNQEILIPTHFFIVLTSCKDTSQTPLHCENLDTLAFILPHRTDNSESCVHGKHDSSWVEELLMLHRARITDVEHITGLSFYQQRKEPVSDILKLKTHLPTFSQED
Assay: cell-based or functional assay

B1: MMAE-IgG1 17 (other)
heavy: QVQLVESGGGLVKPGGSLRLSCAASGFTFSDYYMSWIRQAPGKGLEWVSYISSSGSTIYYADSVKGRFTISRDNAKNSLYLQMNSLRAEDTAVYYCAREVYYYDSSGYYTYYFDYWGQGTLVTVSS[human IgG1 constant region not spelt out]
light: DIQMTQSPSSLSASVGDRVTITCRASQSISSYLNWYQQKPGKAPKLLIYAASSLQSGVPSRFSGSGSGTDFTLTISSLQPEDAATYYCQQYDTFPLTFGGGTKVEIKRTVAAPSVFIFPPSDEQLKSGTASVVCLLNNFYPREAKVQWKVDNALQSGNSQESVTEQDSKDSTYSLSSTLTLSKADYEKHKVYACEVTHQGLSSPVTKSFNRGEC
modifications: Osu-Glu-vc-PAB-MMAE conjugated; residues and chain not stated
  IC50 of cell killing (relative cell viability) on HepG2 cells: ~33 nM
  IC50 of cell killing (relative cell viability, Cell Titer-Glo, 4 days) on 293T-ENPP1 cells: ~13 nM

B2: MMAE-IgG1 3G12 (other)
heavy: B1 heavy
light: B1 light with A83V, T85V, D92Y, F94S, P95R, L96I, G100Q, V104L
modifications: Osu-Glu-vc-PAB-MMAE conjugated; residues and chain not stated
  IC50 of cell killing (relative cell viability) on HepG2 cells: ~80 nM
  IC50 of cell killing (relative cell viability, Cell Titer-Glo, 4 days) on 293T-ENPP1 cells: ~10 nM
